{
  "source": "paper PMC7561547",
  "about": "“Population pharmacokinetic analysis of phase 1 bemarituzumab data to support phase 2 gastroesophageal adenocarcinoma FIGHT trial” (Cancer Chemotherapy and Pharmacology, 2020)",
  "binders": {"B1": {"name": "human Fc gamma receptor IIIA (V158) (receptor)", "chain": "not shown", "modifications": "Soluble analyte in SPR; construct limits are not given, so the extracellular region ([…]) is taken by convention from the entry features. V158 is the conventional allotype numbering, equal to pre"}},
  "target": "Bemarituzumab (human (humanized IgG1))",
  "test": "SPR; Biacore T100; bemarituzumab captured on a dextran chip via covalently attached protein A; five concentrations (0 nM to 1000 nM) of FcγRIIIa (V158) in HEPES buffered saline with 0.05% surfactant P20 flowed over; 1:1 binding model",
  "conditions": "both partners purified",
  "data": [
    {"binder": "B1", "values": [
      {"measurement": "Kd", "value": 9.2, "unit": "nM"}
    ]}
  ]
}
